This is an account of results in ChEMBL document CHEMBL4888484, “Replenishing the malaria drug discovery pipeline: Screening and hit evaluation of the MMV Hit Generation Library 1 (HGL1) against asexual blood stage Plasmodium falciparum ,using a nano luciferase reporter read-out” (2022).

The campaign covered roughly 150,000 compounds. About 540 (0.36%) showed an effect of 50% or more. Some of the results follow.

The test deals with Plasmodium falciparum. Put plainly: Primary screen in NF54 nanoGlo assay, in single point, at 2uM, 72h; a lower Z score goes with more inhibition. It is filed as functional, Erythrocyte. Particulars: timepoint 72 hour.
Regarding `CCN(CC)c1ccc(C(=O)O)cc1N`, the “% Inhibition” value is -1% and the Z score amounted to 0.15.

For `Cc1ccc(CC(=O)NC[C@@H](c2ccc(C)o2)N2CCCC2)cn1`, the “% Inhibition” value came to 7% and the Z score was -0.59.

With `CC(=O)N1CCN(C(=O)Cc2csc(-c3ccc(C)o3)n2)CC1`, the “% Inhibition” value was -11% and the Z score is 1.5.

Take `CCc1ncc(NS(=O)(=O)c2cnn3c2OCC(C)(C)C3)cn1`: the “% Inhibition” value amounted to 2% and the Z score was -0.45.

For `Cc1ccc2c(C3CCN(C(=O)c4ccncc4F)CC3)c[nH]c2c1`, the “% Inhibition” value came to 0% and the Z score is 0.

Consider `O=C(COCc1cc[nH]c(=O)c1)N[C@@H]1c2ccccc2CC[C@@H]1O`, for which the “% Inhibition” value was -7% and the Z score was 0.95.

As for `C[C@H]1CN(CCCc2ccccc2Br)CCS1(=O)=O`, the “% Inhibition” value was -11% and the Z score is 0.97.

`COc1ccc(Cc2nc(-c3ccc4ncn(C(C)C)c4c3)no2)cc1`: the “% Inhibition” value is reported as -9% and the Z score was determined as 1.49.

`CC1(c2ccc(F)cc2F)NC(=O)N(CCC2CCCO2)C1=O` (stereo unspecified): the “% Inhibition” value is recorded as -10% and the Z score was found to be 1.12.

Consider `CCCC(=O)N1CCCC1C(=O)N1CCCC1Cc1ccc(C)cc1` (stereo unspecified), for which the “% Inhibition” value is on record as -7% and the Z score was 1.06.

In the case of `COc1ccc(-c2c3c(=O)n(C)c(=O)n(C)c3c3n2C(C)(C)CO[C@H]3c2ccco2)cc1`, the “% Inhibition” value worked out at 3% and the Z score is reported as -0.47.

As to `Cc1ncc(COC(=O)C2Oc3ccccc3C2C)s1` (stereo unspecified), the “% Inhibition” value was -9% and the Z score amounted to 1.27.

As to `Cc1nc(N2CC[C@H](N3CCOCC3)C2)ccc1Br`, the “% Inhibition” value is listed as -4% and the Z score is listed as 0.69.

Consider `COc1ccc(NC(=O)c2sc(N(C(C)=O)C3CCCC3)nc2C)c(OC)c1`, for which the “% Inhibition” value is given as -4% and the Z score was 0.44.

As to `O=C(N[C@H]1C[C@H]2OCC[C@@H]12)c1ccc2ncsc2c1`, the “% Inhibition” value is recorded as -15% and the Z score was found to be 1.49.

With `Cc1nc2ncc(-c3ccc(C(=O)N(C)C[C@H](O)CO)cc3)cc2[nH]1`, the “% Inhibition” value was -8% and the Z score is recorded as 1.49.

On to `O=C(CCC1CCCC1)N1CCC(F)(C(=O)N2CCOCC2)CC1`, for which the “% Inhibition” value is reported as -4% and the Z score was determined as 0.51.

In the case of `CCCCCS(=O)(=O)N(C)Cc1nnc(C)n1C`, the “% Inhibition” value is -1% and the Z score is 0.06.

As to `COc1ccc2c(NC(=O)Cc3c(C)noc3C)n[nH]c2c1`, the “% Inhibition” value is reported as 29% and the Z score is -0.04.

For `Cc1nonc1Cn1cnc(-c2ccccn2)n1`, the “% Inhibition” value was -8% and the Z score came to 1.22.

`Cc1ccc(CC(=O)Nc2cccnc2Oc2ccccc2)cc1`: the “% Inhibition” value is recorded as -7% and the Z score was found to be 0.96.

`COc1ccc2c(=O)c(C(=O)NCCCc3nnc4ccccn34)c[nH]c2c1`: the “% Inhibition” value is recorded as -4% and the Z score is listed as 0.46.

For the compound `Cc1cc(C(=O)N(c2cccc(C(F)(F)F)c2)[C@@H](C)C2CC2)n(C)n1`, the “% Inhibition” value was -4% and the Z score was 0.45.

Consider `N=C(N)N=C(N)N(c1ccccc1)c1ccccc1`, for which the “% Inhibition” value is reported as -16% and the Z score is listed as 2.2.

As for `O=c1c2c(ncn1Cc1ccc(Cl)c(Cl)c1)CCOC2`, the “% Inhibition” value was -8% and the Z score was determined as 1.53.

Consider `Cc1cc(N2CCN(C(=O)Cc3ccc(F)cc3)CC2)ncn1`, for which the “% Inhibition” value is recorded as -8% and the Z score is listed as 1.57.

Consider `CCOC(=O)N1CCC(NC(=O)c2nnn(-c3ccccc3)n2)CC1`, for which the “% Inhibition” value is reported as -18% and the Z score is 2.6.

In the case of `Cc1nc[nH]c1C(=O)NCc1cccnc1Oc1ccc(F)c(F)c1`, the “% Inhibition” value is -7% and the Z score stood at 1.43.

`Cc1nscc1C(=O)N1CCNC[C@H]1c1ccncc1`: the “% Inhibition” value is recorded as -7% and the Z score is listed as 0.97.

In the case of `COc1cccc(C(=O)N[C@H]2CCCN(C3CCN(C)CC3)C2)c1`, the “% Inhibition” value turned out to be 14% and the Z score was -1.26.

On to `O=C1c2ccccc2N[C@]2(C(=O)Nc3ccccc32)N1c1ccc(F)cc1`, for which the “% Inhibition” value is -2% and the Z score was determined as 0.22.

Turning to `Cc1ccc(CN(C)c2ccc3nnc(C4CC4)n3n2)o1`, the “% Inhibition” value is -8% and the Z score is given as 0.96.

In the case of `Cc1ccc(-c2nnc(N(Cc3ccccc3)C(C)C)n2C)s1`, the “% Inhibition” value is on record as -37% and the Z score is given as 4.39.

`N#Cc1ccncc1N1CCN(C2CC2)C(=O)C1`: the “% Inhibition” value is listed as -1% and the Z score was 0.19.

For the compound `Cc1nn(-c2ccccn2)c2c1[C@H](c1ccnn1-c1ccccc1)CC(=O)N2`, the “% Inhibition” value is recorded as -4% and the Z score is on record as 0.48.

Consider `O=S(=O)(N[C@@H](Cn1cnc2ccccc21)c1ccc(F)cc1)c1ccccc1F`, for which the “% Inhibition” value is -13% and the Z score is on record as 1.2.

On to `CCOC(=O)c1c(CN(CC)CC)n(-c2ccccc2)c2ccc(OS(=O)(=O)c3ccc(C)cc3)cc12`, for which the “% Inhibition” value is given as -22% and the Z score is on record as 2.55.

Consider `C[C@H](NC(=O)c1ccc(Oc2ccccc2)o1)c1ccon1`, for which the “% Inhibition” value is recorded as -1% and the Z score is recorded as 0.09.

Turning to `CC(NC(=O)NC1CCCNC1=O)c1cnn(Cc2ccccc2)c1` (stereo unspecified), the “% Inhibition” value is reported as -6% and the Z score turned out to be 0.81.

With `N#Cc1ccc(NCCNC(=O)c2ccncc2)nc1`, the “% Inhibition” value was determined as 2% and the Z score was -0.2.

In the case of `CCc1nc(NC[C@@H](O)c2ccccc2OC)c2ccsc2n1`, the “% Inhibition” value stood at 0% and the Z score is reported as -0.02.

For `CC(C)[C@H]1CCCN(C(=O)CCc2cccnc2)CC1`, the “% Inhibition” value is on record as -13% and the Z score was 2.05.

Turning to `N#Cc1nc2c(C#N)c(N)n(CCc3ccccc3)c2nc1C#N`, the “% Inhibition” value was found to be 88% and the Z score is given as -11.87.

As usually defined, the % Inhibition is the relative decrease from the control value, in per cent.
